# Assay results as given in PMC12136788.
# Residue numbers refer to the chain shown, from its start. This is one part of the list.
# T1: UNK ZnF1-3 (human, UniProt Q9C0B0 31-174)
# T1 sequence: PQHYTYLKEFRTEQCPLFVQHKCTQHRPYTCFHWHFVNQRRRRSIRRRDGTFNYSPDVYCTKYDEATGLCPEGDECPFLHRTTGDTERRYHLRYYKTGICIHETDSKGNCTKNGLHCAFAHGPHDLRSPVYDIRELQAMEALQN
# B1: chr12:121221538:121221539:-_ENSG00000157837_ENST00000353487|hu_mus|FALSE|FALSE (ssRNA)
# RNA: GGGAGUUCUACAGUCCGACGAUCGAGGUGAGCAGGGCCUUGUUAAAUACUGGCACAUCGGGAGAAGAAGAAAAGCAAAAGCUAUUGUUGCAAGAACUGCUGUACAUAUUGUGAAAACGACUUGAACUGAAUCAAAGAAGAAGACAACAGAGGAUUGAGCAUCA
# B2: 30750662_30751217_4568_CDS_ENSMUSG00000040850_ENSMUST00000041231|mouse|control|control (ssRNA)
# RNA: GGGAGUUCUACAGUCCGACGAUCCCCCCCUUCACCACUCAAUGGUGACUCCAAGAGCAGCUCAAAAAGCCAGUGAAGCUUCCGGGGAUCUCUGCUUUCACAGGAAGUGGCUAUACAGGUCCCCCAGUCAUUGUAUGUCUCCACCAACAGAGGAUUGAGCAUCA
# B3: chr2:47387792:47387793:-_ENSG00000143933_ENST00000272298|hu_hu|hu_hu_hu_mus_True|18_38 (ssRNA)
# RNA: GGGAGUUCUACAGUCCGACGAUCUAAGGACAAUGACAGUAAGAUAAGGGAAGAAAACAUGGAGGAAUGAAGUCCUAAUUACUAUACAUGCAUAUUUUUUUGACAGUGGGGGGGGGACUUUUACAGAGAUAAGUUACAAACAAACAACAGAGGAUUGAGCAUCA
# B4: 119742188_119742308_1329_CDS_ENSMUSG00000033943_ENSMUST00000110774|mouse|control|control (ssRNA)
# RNA: GGGAGUUCUACAGUCCGACGAUCCACUGUUAUCCCUUCUGGGCAUUCACCAAGUUCAUAAUCAUAAUCAUCUAGAGGCUCUUCUUUAAUGACGACAUUAAAGUUUCCAUUCGGGUUUGAUGGUGAGGAAAUCUGGGAAUCAUCCAACAGAGGAUUGAGCAUCA
# B5: chr1:149875238:149875239:-_ENSG00000159164_ENST00000369146|hu_hu|FALSE|FALSE (ssRNA)
# RNA: GGGAGUUCUACAGUCCGACGAUCUUUUGUUAUUUUCACUUUUUUCCUUUUAACAUUUUUUUAAACAUUUUACAAACAUCUAAAAACUACAACACGUCACAGCUACAGUGGGGUGAGGGGAGGGCACCAAAGAAAGCAGCCACACAACAGAGGAUUGAGCAUCA
# B6: chr6:50807893:50807894:+_ENSG00000008196_ENST00000393655|hu_mus|motif|central (ssRNA)
# RNA: GGGAGUUCUACAGUCCGACGAUCCUCGGACACGGCUUUAGCAGGAAACUCUGUUUCACAAAUAUACCCGAAAUCCCGAGCGGAGUGAACAGCUUCCCCUUCUACCAGUGAGGUGAGUAACGUGACAUUUGCUGCUUUGCGCCUCAACAGAGGAUUGAGCAUCA
# B7: chr10:104572449:104572450:+_ENSG00000166272_ENST00000448841|hu_mus|FALSE|FALSE (ssRNA)
# RNA: GGGAGUUCUACAGUCCGACGAUCAGCGCCUGGGGGGCUGCCACCUGGAGGGCCACCCUGAGGAGGAGGUGGCAGCAGCUGCUGCUGCUGUUGGAGCUGGAAGGCACUGUACGGUGGGGGAGGAGUUGGAGGUCGGUUCACCACCAACAGAGGAUUGAGCAUCA
# B8: chr3:44794862:44794863:-_ENSG00000163807_ENST00000296121|hu_mus|motif|central (ssRNA)
# RNA: GGGAGUUCUACAGUCCGACGAUCGUCCACAAUAUUCAUAUUUACUCAUUUUCAUCUUCACUGUCAAAAGAAAGGAGACUGCGGUUUUUUAUUUGUUUUUGUGAGUUCUUUCUAACUGAACUUUGCUUAUUUACAUCAUCUUCACAACAGAGGAUUGAGCAUCA
# B9: chr4:39779992:39779993:+_ENSG00000078140_ENST00000510719|hu_mus|FALSE|FALSE (ssRNA)
# RNA: GGGAGUUCUACAGUCCGACGAUCACUCAGAAGCAGUUCUGUUGCAGUCUCUACAUCCCAUGAUUUUGAAGACAAGGCCACUAUUACUGCGUUCCUAUCAAAACCCAUAGCACAGAGGUUUUCUAUUUUUUUGGUGUAUUCUGGCAACAGAGGAUUGAGCAUCA
# B10: chr11:118025658:118025659:-_ENSMUSG00000017132_ENSMUST00000017276|mus_hu|FALSE|FALSE (ssRNA)
# RNA: GGGAGUUCUACAGUCCGACGAUCUUGUAUUUUGACAAAACUUCUUUUAAACAAAUACAAAAUAAUCUAAAAGGAGAAAAACUAUACAUAGAUUAUUUACACCUCUGAUAAAUAGACUAAUACUGACCCAGGUGCCUCUCUGUCCAACAGAGGAUUGAGCAUCA
# B11: chr7:75932113:75932114:+_ENSG00000106211_ENST00000248553|hu_hu|hu_hu_hu_mus_False|98_98 (ssRNA)
# RNA: GGGAGUUCUACAGUCCGACGAUCCUGCGACCACUCAUCCGGCAGCCGGGGCACCCCGAAAGCUUGAUCGAAGAGGCGGCUGUGUGCAGGGUACCAGUCCCGGAAUGGUUCCCAGCUCGGGCUCCGCAGCAGCGAGAAGGGCACCAACAGAGGAUUGAGCAUCA
# B12: chrX:140365796:140365797:-_ENSMUSG00000031285_ENSMUST00000033642|mus_mus|mus_mus_mus_hu_False|18_28 (ssRNA)
# RNA: GGGAGUUCUACAGUCCGACGAUCCUUCUCAUUACUCAGUGCCUGCAAGGUUCUGGUUCGGUAGAAGCUACAGUGGGCGCUGUGAGUGGGGCUAGGCAACCCAUUCAUCCGUGACCCUCUCAUAUUUCUGGAUGUCUUAUCUCUCAACAGAGGAUUGAGCAUCA
# B13: 99087834_99087954_2473_CDS_ENSG00000152767_ENST00000319562|human|control|control (ssRNA)
# RNA: GGGAGUUCUACAGUCCGACGAUCCGGAACCACAAGAUUGUCAAUGCCAAUCAAAUCUUUCUUGAGUUCGUGCAGCUUCUGGAAAUUCUCCAUCUUGAUCAUCGUACCGUGGAGCUGUGCCACCAUCUCCGUGAUCUCUGCCAACAACAGAGGAUUGAGCAUCA
# B14: 114483797_114483917_1084_3pUTR_ENSG00000163349_ENST00000369558|human|control|control (ssRNA)
# RNA: GGGAGUUCUACAGUCCGACGAUCCAUCAAGGCUGUGGCCACCUGCUGCAAGAUUGGUCUGAUGUACUUGAGUGGCAGUGGGCUAAAUUUGUUUUGCUUUAGAAAAUCAUAUAAGUUCUGCUCCAACAUUUCAAAAACAAGGCACAACAGAGGAUUGAGCAUCA
# B15: chrX:140365796:140365797:-_ENSMUSG00000031285_ENSMUST00000033642|mus_mus|mus_mus_mus_hu_False|58_78 (ssRNA)
# RNA: B12 RNA with G59U, G78A, G81A, U111G, C114G, U119G, A123G, U126C
# B16: 28289759_28289879_4143_CDS_ENSMUSG00000040651_ENSMUST00000022450|mouse|control|control (ssRNA)
# RNA: GGGAGUUCUACAGUCCGACGAUCUGUGACAACCUCUAGAUUUAGAAUUGAUUCAUCAGACACAAUAAAGCCACCAGAUACAAAUAACUCGUUGUAUGUAUGAUUUUUAACAUCAUCCAGGCUAUCAACACCAGCAAAACUAACCAACAGAGGAUUGAGCAUCA
# B17: chr15:5129413:5129414:+_ENSMUSG00000050697_ENSMUST00000051186|mus_mus|motif|central (ssRNA)
# RNA: GGGAGUUCUACAGUCCGACGAUCAAAAUAGCAUGUUAAGAGGAAUAUGGAAAUAGUUCACAAUGUAACCAAAAAUGGAAACGGGUAGCUAUUUUGGAAGUUAAGGAGCCCAGAAAACAGCAUUAUCUAAUAAGGUCUAUGAGGCAACAGAGGAUUGAGCAUCA
# B18: chr13:49821539:49821540:+_ENSMUSG00000037851_ENSMUST00000165316|mus_mus|FALSE|FALSE (ssRNA)
# RNA: GGGAGUUCUACAGUCCGACGAUCUUCCCGAGCCAUGCCCUCAUCCACCAUUGACUGGUCAGGUGUGACAUCUAAGAGAACUAGAGCCUGAGCAUCAGAGUGUGCUUCAAACUGCGCGGUCCCUCCCGUGGCCUGGUCAAAGGUCAACAGAGGAUUGAGCAUCA
# B19: 116324102_116324222_123_5pUTR_ENSMUSG00000028692_ENSMUST00000030455|mouse|control|control (ssRNA)
# RNA: GGGAGUUCUACAGUCCGACGAUCGGAGGAGACCCCCACUGUCCUGCGAAGUAGAAGAGGGAGUAGAAGCCAAAGCUGGGACUUUGCACAUUCCUCCCCUGGGAACCUCUCACUCCACCACGAACGUCUGGAAGGGCCGGGGUCCAACAGAGGAUUGAGCAUCA
# B20: chr14:31074762:31074763:+_ENSG00000092140_ENST00000206595|hu_mus|FALSE|FALSE (ssRNA)
# RNA: GGGAGUUCUACAGUCCGACGAUCCCACACAUUGGCUUUGUUGAUGUAUAAUGUCUUAGUUUUCUUUUUAAUUUGGAAUCCUAACUCUAUCAAUAUUGUUGAAAUGUCUCUCCUAAAUUUGCUGCCUUGCCUCAGUAGUUCUUUCAACAGAGGAUUGAGCAUCA
# B21: chr1:163112212:163112213:-_ENSG00000143248_ENST00000313961|hu_hu|hu_hu_hu_mus_False|78_108 (ssRNA)
# RNA: GGGAGUUCUACAGUCCGACGAUCUUUAUUUAUCCAGAAGAGUGAGUUACAUACUAGAUAAAGUAUUGGAUACAAUAAUCAGGAAACAAACACUAUUGGUCCAGAAUUUAAAACUUUAUGAGCGAAGUGCUGGCACAGGACUUACAACAGAGGAUUGAGCAUCA
# B22: 59717319_59717439_3773_3pUTR_ENSMUSG00000039585_ENSMUST00000128341|mouse|control|control (ssRNA)
# RNA: GGGAGUUCUACAGUCCGACGAUCAAUGACAGCUGCAGCUCGUAAUUCCAAGUACCGUUGCCUCUCUAAGUGAGCACGCCAGGAUGCCUGAAGAAGGGAAGCUGCACUAGCCAUUAUGAAAGCAUCUUUCUCCACAGCCGCAUUCAACAGAGGAUUGAGCAUCA
# Molecular target: T1, UNK ZnF1-3
# Assay: nsRBNS (natural sequence RNA bind-n-seq); RBNS binding buffer (assumed for nsRBNS): 25 mM Tris pH 7.5, 150 mM KCl, 3 mM MgCl2, 0.01% Triton X-100, 500 ug/ml BSA, 20 U/ml SUPERase-In, 4 C; UNK is unkempt and MSI1 is Musashi-1; names of the RNAs are library labels; protein concentration not given here; high values mean tight binding
row,Binder,binding signal
1,B1,2.46 enrichment R
2,B2,0.867 enrichment R
3,B3,2.41 enrichment R
4,B4,1.15 enrichment R
5,B5,1.23 enrichment R
6,B6,0.794 enrichment R
7,B7,2.24 enrichment R
8,B8,0.777 enrichment R
9,B9,0.737 enrichment R
10,B10,1.43 enrichment R
11,B11,1.07 enrichment R
12,B12,0.603 enrichment R
13,B13,0.693 enrichment R
14,B14,1.75 enrichment R
15,B15,0.426 enrichment R
16,B16,1.51 enrichment R
17,B17,1.7 enrichment R
18,B18,0.889 enrichment R
19,B19,1.33 enrichment R
20,B20,0.805 enrichment R
21,B21,1.21 enrichment R
22,B22,0.668 enrichment R
